This passage reports cytotoxicity call and growth inhibition call results from the antibiotic and cytotoxicity screens of Wong et al. (2023).

One test concerns HSkMC. Description: cytotoxicity call (relative viability < 0.9). As to conditions: 10 µM.
The test system of the next test is HepG2. Description: cytotoxicity call (relative viability < 0.9). As to conditions: 10 µM.
The next test has as its system S. aureus RN4220. Kind of test: growth inhibition call (relative growth <= 0.2). As to conditions: 50 µM.

Each structure is given as a SMILES string. The list shows a part of the results.

With `C[C@H]1CN([C@@H](C)CO)C(=O)CCCn2nncc2CO[C@@H]1CN(C)S(=O)(=O)c1ccc(C#N)cc1`, the cytotoxicity call in the test on HSkMC and in the test with HepG2 was “inactive” each time. Further, the growth inhibition call with S. aureus RN4220 was “inactive”.

On to `CCNC(=O)C[C@H]1C=C[C@H](NC(=O)C2CC2)[C@H](CO)O1`, for which the cytotoxicity call with HSkMC and in the test on HepG2 was “inactive” each time. The growth inhibition call in the test on S. aureus RN4220 was “inactive”.

For the compound `O=C1COC2(CN1)COC2`, the cytotoxicity call with HSkMC and with HepG2 was “inactive” throughout. Moreover, the growth inhibition call with S. aureus RN4220 was “inactive”.

Turning to `OCc1ccc(-c2cccs2)cc1`, the cytotoxicity call in the test on HSkMC and with HepG2 was “inactive” throughout. In addition, in the test with S. aureus RN4220, the growth inhibition call was “inactive”.

Regarding `COc1ccc(S(=O)(=O)Nc2cccc3c2O[C@H](CN(C)C(=O)NC(C)C)[C@H](C)CN([C@@H](C)CO)C3=O)cc1`, the cytotoxicity call in the test with HSkMC and in the test on HepG2 was “inactive” each time. For the same compound, in the test on S. aureus RN4220, the growth inhibition call was “inactive”.

On to `Cc1ccc(S(=O)(=O)N(C)C[C@H]2Oc3c(NS(=O)(=O)c4cccs4)cccc3C(=O)N([C@H](C)CO)C[C@@H]2C)cc1`, for which the cytotoxicity call in the test on HSkMC and in the test on HepG2 was “inactive” throughout. In addition, the growth inhibition call in the test on S. aureus RN4220 was “inactive”.

Regarding `C[C@H](CO)N1C[C@H](C)[C@H](CN(C)C(=O)CCN2CCCCC2)Oc2ncc(C#CCN(C)C)cc2C1=O`, the cytotoxicity call with HSkMC and with HepG2 was “inactive” in each case. The growth inhibition call in the test with S. aureus RN4220 is “inactive”.

As for `C[C@@H]1CN([C@@H](C)CO)C(=O)c2cccc(NC(=O)c3nc4ccccc4s3)c2O[C@@H]1CN(C)Cc1ccc(C(F)(F)F)cc1`, the cytotoxicity call with HSkMC and with HepG2 was “inactive” throughout. Further, the growth inhibition call in the test with S. aureus RN4220 was “inactive”.

`COc1ccc(S(=O)(=O)N(C)C[C@H]2Oc3ccc(NS(C)(=O)=O)cc3C(=O)N([C@@H](C)CO)C[C@H]2C)cc1`: the cytotoxicity call in the test with HSkMC and with HepG2 was “inactive” each time. The growth inhibition call in the test with S. aureus RN4220 is “inactive”.

On to `CC(O)C(=O)[O-].[NH4+]` (stereo unspecified), for which the cytotoxicity call in the test with HSkMC and in the test on HepG2 was “inactive” each time. Also, in the test on S. aureus RN4220, the growth inhibition call is “inactive”.

As to `CCS(=O)(=O)Nc1ccc2c(c1)C(=O)N(C)C[C@H](OC)[C@@H](C)CN(Cc1nccs1)[C@H](C)CO2`, the cytotoxicity call in the test with HSkMC and with HepG2 was “inactive” each time. Besides, the growth inhibition call in the test on S. aureus RN4220 was “inactive”.

Consider `O=C(CCc1ccc(O)cc1)c1c(O)c([C@@H]2O[C@H](CO)[C@@H](O)[C@H](O)[C@H]2O)c(O)c([C@@H]2O[C@H](CO)[C@@H](O)[C@H](O)[C@H]2O)c1O`, for which the cytotoxicity call with HSkMC and with HepG2 was “inactive” each time. Also, the growth inhibition call in the test with S. aureus RN4220 was “inactive”.

As to `O=C(C[C@@H]1C[C@@H]2c3cc(NC(=O)Nc4ccc(C(F)(F)F)cc4)ccc3O[C@@H]2[C@H](CO)O1)NCc1ccc(Cl)cc1`, the cytotoxicity call in the test with HSkMC and in the test on HepG2 was “inactive” in each case. Besides, the growth inhibition call with S. aureus RN4220 is “inactive”.

Turning to `CC(C)(C)CC(C)(C)c1ccc(O)c(Cc2ccc(Cl)cc2Cl)c1`, the cytotoxicity call with HSkMC and in the test on HepG2 was “active” each time. The growth inhibition call in the test on S. aureus RN4220 is “inactive”.

Consider `C[C@@H]1CCCCO[C@H](CN(C)C(=O)Nc2cccc3ccccc23)[C@H](C)CN([C@H](C)CO)C(=O)c2cc(NC(=O)C3CCCCC3)ccc2O1`, for which, in the test with HSkMC, the cytotoxicity call was “inactive”. Moreover, in the test on HepG2, the cytotoxicity call is “active”. In addition, the growth inhibition call in the test with S. aureus RN4220 is “inactive”.

As to `C[C@H]1CN([C@@H](C)CO)C(=O)c2cc(NC(=O)Nc3ccc4c(c3)OCO4)ccc2O[C@@H]1CN(C)C(=O)Nc1ccc(C(F)(F)F)cc1`, the cytotoxicity call in the test on HSkMC and with HepG2 was “inactive” in each case. In the test with S. aureus RN4220, the growth inhibition call is “inactive”.

On to `C[C@@H]1CN([C@@H](C)CO)C(=O)c2c(c3ccccc3n2C)-c2ccccc2CO[C@@H]1CN(C)C(=O)CCC(F)(F)F`, for which the cytotoxicity call in the test with HSkMC and in the test with HepG2 was “inactive” throughout. Moreover, the growth inhibition call in the test on S. aureus RN4220 was “inactive”.

For `CO[C@H]1C[C@@H]2CC[C@@H](C)[C@@](O)(O2)C(=O)C(=O)N2CCCC[C@H]2C(=O)O[C@H]([C@H](C)C[C@@H]2CC[C@@H](OP(C)(C)=O)[C@H](OC)C2)CC(=O)[C@H](C)/C=C(\C)[C@@H](O)[C@@H](OC)C(=O)[C@H](C)C[C@H](C)/C=C/C=C\C=C\1C`, the cytotoxicity call in the test with HSkMC and in the test on HepG2 was “inactive” throughout. Moreover, in the test on S. aureus RN4220, the growth inhibition call was “inactive”.

On to `C[C@H]1CN([C@@H](C)CO)C(=O)c2cc(NC(=O)Nc3ccc4c(c3)OCO4)ccc2O[C@H]1CN(C)Cc1ccc(C(=O)Nc2ccccc2N)cc1`, for which the cytotoxicity call with HSkMC and in the test on HepG2 was “inactive” throughout. In addition, in the test on S. aureus RN4220, the growth inhibition call is “inactive”.

In the case of `CO[C@@H]1CN(C)C(=O)c2cc(NS(=O)(=O)c3ccccc3)ccc2OC[C@H](C)N(C(=O)NC(C)C)C[C@@H]1C`, the cytotoxicity call in the test on HSkMC and with HepG2 was “inactive” throughout. Further, in the test on S. aureus RN4220, the growth inhibition call is “inactive”.

Consider `O=C(NCCN1CCCC1)[C@@H]1N[C@@H]2c3ccc(-c4ccccc4)c(=O)n3C[C@@H]2[C@H]1CO`, for which the cytotoxicity call in the test with HSkMC and in the test with HepG2 was “inactive” throughout. Moreover, in the test on S. aureus RN4220, the growth inhibition call is “inactive”.

Take `COc1ccc(S(=O)(=O)N(C)C[C@H]2Oc3ccc(NS(C)(=O)=O)cc3CC(=O)N([C@@H](C)CO)C[C@H]2C)cc1`: the cytotoxicity call with HSkMC and in the test on HepG2 was “inactive” each time. In the test on S. aureus RN4220, the growth inhibition call is “inactive”.

For `Cn1nnc2c(Cl)ncnc21`, the cytotoxicity call with HSkMC and with HepG2 was “inactive” in each case. In the test on S. aureus RN4220, the growth inhibition call is “inactive”.

As to `C[C@@H]1CN([C@@H](C)CO)C(=O)c2cc(NS(=O)(=O)c3ccccc3)ccc2O[C@@H]1CN(C)Cc1ccncc1`, the cytotoxicity call in the test on HSkMC and in the test on HepG2 was “inactive” throughout. Moreover, the growth inhibition call in the test on S. aureus RN4220 was “inactive”.

With `C[C@@H]1CN([C@@H](C)CO)C(=O)c2cc(NC(=O)Cn3cnnn3)ccc2O[C@@H]1CN(C)C(=O)Nc1ccccc1`, the cytotoxicity call in the test with HSkMC and in the test on HepG2 was “inactive” throughout. Further, the growth inhibition call with S. aureus RN4220 is “inactive”.

`C[C@@H]1CCCCO[C@@H](CN(C)C(=O)Nc2ccc3c(c2)OCO3)[C@@H](C)CN([C@H](C)CO)C(=O)c2cc(NC(=O)Nc3ccc(C(F)(F)F)cc3)ccc2O1`: the cytotoxicity call in the test with HSkMC and with HepG2 was “inactive” in each case. The growth inhibition call with S. aureus RN4220 is “inactive”.

In the case of `C[C@@H]1CN([C@H](C)CO)C(=O)c2cccc(NS(C)(=O)=O)c2O[C@@H]1CN(C)Cc1ccc(C(=O)Nc2ccccc2N)cc1`, the cytotoxicity call in the test on HSkMC (human skeletal muscle cells) and with HepG2 was “inactive” in each case. Further, the growth inhibition call with S. aureus RN4220 was “inactive”.
